# Paper PMC4336329 (PLoS ONE, 2015)
# Out of some 310,000 compounds screened, about 14,000 (4.5%) showed an effect of 50% or more. Effects have a minus sign here. Some of the results follow.
# Biological target: human ether-à-go-go-related gene (hERG) potassium channel (human, UniProt Q12809)
# Assay: primary screen, population patch clamp on CHO cells stably expressing hERG
# 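Also: peak tail current of the secondary pulse compared with the same well before compound.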
# Sequence of human ether-à-go-go-related gene (hERG) potassium channel (Q12809 whole entry, looked up): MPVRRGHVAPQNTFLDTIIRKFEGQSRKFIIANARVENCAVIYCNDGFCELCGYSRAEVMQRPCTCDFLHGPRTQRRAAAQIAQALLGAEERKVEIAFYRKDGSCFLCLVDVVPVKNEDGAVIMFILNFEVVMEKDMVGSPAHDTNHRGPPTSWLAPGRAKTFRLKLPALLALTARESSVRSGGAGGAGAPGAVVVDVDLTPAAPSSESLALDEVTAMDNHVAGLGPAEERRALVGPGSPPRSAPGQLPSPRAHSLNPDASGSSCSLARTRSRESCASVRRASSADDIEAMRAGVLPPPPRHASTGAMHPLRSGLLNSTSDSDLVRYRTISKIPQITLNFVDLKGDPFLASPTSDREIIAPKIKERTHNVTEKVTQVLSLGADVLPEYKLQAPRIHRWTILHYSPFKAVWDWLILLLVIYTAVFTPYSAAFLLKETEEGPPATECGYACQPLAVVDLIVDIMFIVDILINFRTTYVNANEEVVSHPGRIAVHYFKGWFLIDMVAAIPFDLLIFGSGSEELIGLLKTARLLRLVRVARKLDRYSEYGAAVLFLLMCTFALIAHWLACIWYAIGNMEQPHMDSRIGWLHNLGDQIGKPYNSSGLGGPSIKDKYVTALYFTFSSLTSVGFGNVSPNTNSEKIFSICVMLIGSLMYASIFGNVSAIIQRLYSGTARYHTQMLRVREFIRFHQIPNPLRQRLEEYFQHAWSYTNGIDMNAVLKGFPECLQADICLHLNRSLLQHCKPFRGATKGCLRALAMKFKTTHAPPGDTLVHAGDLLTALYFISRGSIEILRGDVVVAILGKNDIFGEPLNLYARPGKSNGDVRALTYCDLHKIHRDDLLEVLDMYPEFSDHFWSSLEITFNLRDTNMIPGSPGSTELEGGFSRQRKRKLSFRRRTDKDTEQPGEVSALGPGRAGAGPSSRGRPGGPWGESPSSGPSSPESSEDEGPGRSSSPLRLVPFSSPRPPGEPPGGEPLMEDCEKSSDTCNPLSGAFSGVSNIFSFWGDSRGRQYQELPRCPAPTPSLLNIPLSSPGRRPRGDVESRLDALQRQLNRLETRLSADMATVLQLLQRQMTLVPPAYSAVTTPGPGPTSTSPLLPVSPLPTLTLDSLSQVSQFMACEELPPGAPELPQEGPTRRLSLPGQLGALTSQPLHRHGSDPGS
row,SMILES,"hERG current change (%, negative = inhibition) at 10uM"
1,O=C(CSc1cccc2cccnc12)N/N=C/c1ccc(F)cc1,4.25%
2,CCc1ccc(-c2nn(Cc3ccccc3)cc2C(=O)NCC2CCCO2)cc1 (stereo not shown),-16.3%
3,Cc1ccc(S(=O)(=O)CC(=O)c2ccccc2)cc1,-3.71%
4,CCCc1cc(=O)[nH]c(SCc2cc(Cl)ccc2OC(F)F)n1,-8.42%
5,O=C1C2CC=CCC2C(=O)N1Nc1ccccc1 (stereo not shown),12.7%
6,CCOn1c(-n2nc(C)cc2C)nc2ccccc2c1=O,12%
7,O=c1oc2ccccc2c(Nc2ccc(O)cc2)c1[N+](=O)[O-],-6.48%
8,O=C(NCCO)C1(c2ccc(Cl)cc2)CCCC1,1.22%
9,CCOc1ccc(NC(=O)CN(C)C(=O)Cc2ccsc2)cc1OCC,-11.2%
10,Cc1cc(NC(=O)c2c(Br)c(C)nn2C)no1,3.64%
11,O=C(c1cc2ccccc2oc1=O)N1CCCCCCC1,5.11%
12,CCn1cc(C(=O)NCc2ccco2)c(=O)c2cc(S(=O)(=O)N3CCc4ccccc4C3)ccc21,-15.3%
13,CCOc1ccccc1NC(=O)C1C2CCC(O2)C1C(=O)O (stereo not shown),12.3%
14,O=C(CNC(=S)NC(=O)c1cccc([N+](=O)[O-])c1)c1ccccc1,-0.433%
15,CC(C)CNC(=O)C(=O)NCC(c1ccc2c(c1)OCO2)N1CCOCC1 (stereo not shown),6.81%
16,OCCNCC(O)CN1c2ccccc2Sc2ccccc21 (stereo not shown),-9.14%
17,CCOC(=O)CNC(=O)CSc1nnc(-c2ccco2)n1Cc1ccco1,10.4%
18,Cc1ccc(N2CCN(C(=S)c3ccc(-c4ccccc4[N+](=O)[O-])o3)CC2)cc1,19.8%
19,CCC1=C(OC(=O)N(CC)CC)N2C(=O)OC(=NCCc3c[nH]c4ccccc34)[C@]2(Cc2ccccc2)[C@H]2C1=CC[C@H]1C(=O)N(c3ccccc3)C(=O)[C@H]12,8.56%
20,COC(=O)c1cc(=O)n(Cc2ccco2)c(=Nc2ccc(F)c(Cl)c2)s1,-9.32%

row,SMILES,"hERG current change (%, negative = inhibition) at 10uM"
1,CCNC(=O)Cc1ccc(Br)cc1,14%
2,NC(=O)c1cccnc1OCC(F)(F)F,2.21%
3,Nc1c(Cl)cc(Cl)cc1C(=O)OCC(=O)N1CCCC1,-23.9%
4,CCOc1ccc(NC(=O)CSc2nc3ccccc3nc2N2CCOCC2)cc1,-10.6%
5,Cc1ccc(NC(=O)c2ccc3nsnc3c2)c(Cl)c1,15.1%
6,CC(NC(=O)c1ccc2c(c1)OCO2)c1cccc(C(F)(F)F)c1 (stereo not shown),-20.8%
7,CC(Sc1nnc(-c2cc3ccccc3o2)n1-c1ccccc1)C(=O)O (stereo not shown),15.2%
8,Cc1nc(NC(=O)COC(=O)CCS(=O)(=O)c2ccccc2Cl)c(Cl)cc1Cl,9.37%
9,COc1ccc(CN2CCNC(=O)C2CC(=O)NC2CCCCCCC2)cc1OC (stereo not shown),-0.601%
10,CN(C1CCS(=O)(=O)C1)S(=O)(=O)c1ccc2ccccc2c1 (stereo not shown),-15.3%
11,CC1CN(CCc2ccccc2)c2nc3c(c(=O)n(C)c(=O)n3C)n2C1 (stereo not shown),-33.9%
12,CCOC(=O)c1[nH]c(C)c(C(=O)N(C)Cc2ccccc2)c1C,-2.65%
13,COc1cccc(NC(=S)N(Cc2ccc(C(=O)O)cc2)Cc2ccc(OC)c(OC)c2)c1,7.74%
14,COCc1ccc(CN2CCCC(CO)(Cc3ccccc3)C2)o1 (stereo not shown),-12.4%
15,COC(=O)[C@H](CC(C)C)NC(=O)Nc1ccc2c(c1)OCCO2,10.6%
16,CCN(CC)c1ccc(NC(=O)Nc2ccccc2C(F)(F)F)cc1,7.72%
17,O=C(Nc1ccc(N2CCCC2)cc1)c1cc([N+](=O)[O-])ccc1N1CCOCC1,-5.17%
18,CC(c1nnnn1C1CCCCC1)N(Cc1ccccc1)Cc1cccnc1 (stereo not shown),-34.4%
19,CCOc1nc2ccccc2cc1/C=C/C(=O)O,11.4%
20,CC1CCCN(c2nc(NCc3ccco3)nc(N)c2[N+](=O)[O-])C1 (stereo not shown),-54.3%

row,SMILES,"hERG current change (%, negative = inhibition) at 10uM"
1,CCC(NC(=O)CCc1ccccc1)c1ccccc1 (stereo not shown),-3%
2,O=S1(=O)CCOCCN1Cc1ccccc1,13.2%
3,COc1c2occc2c(OC)c2c(=O)cc(C)oc12,-6.96%
4,CCOC(=S)SCC(=O)Nc1ncc(C)s1,9.73%
5,COc1ccccc1C(=O)N(C1=NC(C)CS1)c1ccc(Cl)cc1 (stereo not shown),7.94%
6,O=C(c1cc2ccccc2oc1=O)N(Cc1cccs1)Cc1ccccc1Cl,-4.97%
7,CCN1CCSc2ccc(C(=O)NCc3cccc(F)c3)cc21,6.46%
8,CCn1c(CSc2n[nH]c(N)n2)nc2cc(C(=O)O)ccc21,12.7%
9,O=C(CCCN1C(=O)c2ccccc2C1=O)N1CCc2ccccc2C1,-27.2%
10,Cc1cc(NC(=O)CSc2nc(C(C)C)nc3sc4c(c23)CCCC4)no1,9.82%
11,Cn1c(=O)c([N+](=O)[O-])c(N2CCN(Cc3ccc4c(c3)OCO4)CC2)c2ccccc21,-5.82%
12,COc1ccc(C(=O)NCCS(=O)(=O)NCC2CCCO2)cc1 (stereo not shown),12%
13,COc1ccc(S(=O)(=O)N2CCC(C(=O)NC3CC3)CC2)cc1OC,-2.79%
14,CCC(C)C(NC(=O)[C@@H](NC(=O)c1ccccc1F)C(C)C)C(=O)OC (stereo partly shown),6.15%
15,N#Cc1c(/N=C/c2ccccc2)oc(-c2ccccc2)c1-c1ccccc1,15.3%
16,CCOc1ccccc1N1CCN(C(=O)CCCN2C(=O)c3cccc4cccc(c34)C2=O)CC1,-8.72%
17,O=C1c2ccccc2NC2(CCCCC2)N1N=C1CCCCC1,11%
18,Cc1ccc(CN2CCN(c3ccccc3Cl)CC2)o1,-12.5%
